Several values for one entry are separate records, joined by “and”; a condition that tells them apart may be missing. Equal values may be shown once. About 5,000 (1.2%) of roughly 410,000 compounds were called active. Inconclusive means that the source gave no clear call. Such entries were picked first, then a sample of the others. The call rests on the fitted dose curve; in most records, active means well fitted inhibition curve with a large enough effect; inconclusive means small, poorly fitted or top-dose-only effect; inactive means no such curve, though single readings can be large or run the other way. A potency beside an inconclusive call is a rough fit, not a confirmed value.
Assay: qHTS for Inhibitors of TGF-b; further: nearly all actives have a fitted effect of over 65% in size
Conditions: HepG2 CAGA-GFP TGF-b/SMAD3 reporter, GFP fluorescence, 18 h, TGF-beta stimulated, 500 pg/mL final; series mostly up to 46.1 µM; activity, negative = inhibition: at the top concentration
Method in brief: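 Inhibition was scored as loss of TGF-beta-induced (500 pg/mL final, 18 hours, 37 degrees C) GFP in HEPG2 cells carrying a CAGA-GFP reporter, in DMEM with 1% FBS. Well GFP was summed per cell; Activity was normalised to unstimulated and stimulated DMSO wells, then concentration-response fitting.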
With `CC(C)(C)OC(=O)N/N=C\C=C\c1ccc2c(c1)OCO2` the Potency was inconclusive: 35.5 µM [inhibitor, partial curve, poor fit]. In the case of `COc1ccc(C(=O)NCCN(C)C)c2nc3ccccc3cc12`, the Potency is reported as active: 7.08 µM. With `CCCCC[C@@H]1[C@@H]2C(=C(OCC)C[C@@H]3C(=O)N(c4ccccc4)C(=O)[C@H]23)[C@H](c2ccccc2)N1S(=O)(=O)c1ccc(C)cc1` the “activity, negative = inhibition” value was inactive: -17.7%. In the case of `O=[N+]([O-])c1ccc(NN=C(Oc2ccccc2)c2ccc([N+](=O)[O-])cc2)cc1`, the Potency is reported as inconclusive: 6.31 µM [inhibitor, single point]. In the case of `CCC(C(=O)NCCc1ccccc1)n1nc(C)c2sc3ccccc3c2c1=O` (stereo not given), the Potency is reported as inconclusive: 0.562 µM [inhibitor, full curve]. In the case of `O=C(Nc1cccc(-c2ccc(N3CCOCC3)nn2)c1)c1ccc(F)cc1F`, the “activity, negative = inhibition” value is reported as inactive: -6.77%. In the case of `COc1ccc(C(C)(C)C)cc1NC(=O)C1C2C=CC(C2)C1C(=O)O` (stereo not given), the “activity, negative = inhibition” value is reported as inactive: 5.03%. For `Brc1ccc2[nH]c3c(c2c1)CCC3`, the “activity, negative = inhibition” value was inactive: 2.53%. In the case of `COc1cc(C(CCN2CCCC(C)C2)c2c(OC)cc(OC)c3c2OC(=O)CC3c2ccc(N(C)C)cc2)cc(OC)c1OC` (stereo not given), the Potency is reported as inconclusive: 2.82 µM [inhibitor, full curve, poor fit] and inconclusive: 25.1 µM [inhibitor, single point]. In the case of `COc1ccc(C(=O)N2C=Cc3ccccc3C2C#N)cc1` (stereo not given), the “activity, negative = inhibition” value is reported as inactive: 0.655%. For `Cc1cccc(NC(=O)CSc2ncc(-c3ccccc3)[nH]2)c1C`, the Potency was inconclusive: 35.5 µM [inhibitor, single point]. With `Cc1cc(C)n2c(SCc3ccc(Cl)cc3Cl)nnc2n1` the Potency was inconclusive: 25.1 µM [inhibitor, single point]. With `Cc1ccc2ccc3ccc(C)nc3c2n1` the Potency was inconclusive: 3.55 µM [inhibitor, partial curve, poor fit]. For `CCOc1cc(C=C(C(=O)OC)C(=O)OC)ccc1OCc1ccc([N+](=O)[O-])cc1`, the Potency was active: 12.6 µM. For `Cc1ccc2c(C)nc(SC(C(=O)c3ccccc3)c3ccccc3)nc2c1` (stereo not given), the “activity, negative = inhibition” value was inactive: 0.181%. For `COc1ccc(Nc2nc(N)nc(CN3CCN(c4ccc(F)cc4)CC3)n2)cc1`, the Potency was inconclusive: 8.91 µM [inhibitor, partial curve, poor fit]. For `O=C1C=C(Nc2ccccc2)c2ccccc2C1=O`, the Potency was active: 3.16 µM. With `COc1cc(CCC(=O)N2CCN(c3ccccc3)CC2)cc(OC)c1OC` the “activity, negative = inhibition” value was inactive: 30.4%. With `CN(C)S(=O)(=O)N1CCC(Oc2ccc(C(=O)NCc3cnn(C)c3)cc2)CC1` the Potency was inconclusive: 35.5 µM [inhibitor, single point]. For `Cc1ccc2c(c1)N(CC(=O)NCCc1ccccc1)C(=O)CO2`, the Potency was inconclusive: 1.26 µM [inhibitor, partial curve, poor fit]. In the case of `C=CCNc1nc2c(c(=O)n(C)c(=O)n2C)n1CC`, the “activity, negative = inhibition” value is reported as inactive: -1.47%. In the case of `CCOc1cc(S(=O)(=O)N2CCCCC2)ccc1F`, the Potency is reported as inconclusive: 3.16 µM [inhibitor, partial curve]. In the case of `CCc1ccc(C(=O)NNc2ccc(F)cc2F)cc1`, the Potency is reported as inconclusive: 35.5 µM [inhibitor, single point]. With `CCOc1ccc(NC(=O)c2nc(S(=O)(=O)Cc3ccccc3C)ncc2Cl)cc1` the Potency was active: 12.6 µM. In the case of `CCc1ccccc1NS(=O)(=O)c1ccc2nc(-c3ccccc3)[nH]c2c1`, the Potency is reported as inconclusive: 7.94 µM [inhibitor, partial curve]. With `CC(C)S(=O)(=O)C/C(N)=N/OC(=O)c1cc(Cl)cc(Cl)c1` the Potency was inconclusive: 6.31 µM [inhibitor, full curve, poor fit]. In the case of `CCn1c(-c2cc(-c3cc(C)ccc3C)nc3ccccc23)n[nH]c1=S`, the “activity, negative = inhibition” value is reported as inactive: -14.9%. With `Cc1ccc(CNC(=O)c2nn(-c3ccc(Cl)cc3)nc2CO)cc1` the Potency was inconclusive: 6.31 µM [inhibitor, single point]. For `Cc1ccc(NC(=O)Cn2nc(C(F)(F)F)c3c2CCCC3)cc1C`, the Potency was inconclusive: 35.5 µM [inhibitor, single point]. In the case of `CCn1ccc(=N)cc1`, the “activity, negative = inhibition” value is reported as inactive: 23.6%. With `Cc1ccc(C)c(-c2nnc(NC(=O)Cc3ccc(F)cc3)o2)c1` the “activity, negative = inhibition” value was inactive: -3.08%. For `Cc1ccsc1C=Nc1ccc(O)cc1`, the Potency was inconclusive: 11.2 µM [inhibitor, partial curve, poor fit]. For `CCOC(=O)c1cnn(-c2nc3c(C)cccc3s2)c1C`, the Potency was inconclusive: 2 µM [inhibitor, partial curve, poor fit]. In the case of `CC(=O)OCCn1c2nc(=O)[nH]c(=O)c-2nc2cc(C)c(C)cc21`, the Potency is reported as inconclusive: 35.5 µM [inhibitor, single point]. In the case of `Cc1ccc(N2C(=O)c3n[nH]c(C)c3C2c2ccc(Cl)cc2)cc1` (stereo not given), the Potency is reported as inconclusive: 20 µM [inhibitor, partial curve, poor fit]. With `NC(Cc1ccc(Cl)cc1)c1csc(NC(=O)NCCc2ccccc2)n1` (stereo not given) the Potency was inconclusive: 35.5 µM [inhibitor, single point]. In the case of `CC1=C(C(=O)OC2CCCC2)C(c2c(Cl)cccc2Cl)CC(=O)N1` (stereo not given), the Potency is reported as inconclusive: 0.562 µM [inhibitor, full curve, poor fit]. With `Nc1c(C(=O)O)sc2nc(-c3ccc(F)cc3)cc(-c3ccccc3)c12` the “activity, negative = inhibition” value was inactive: -7.82%. In the case of `CCOC(=O)C(CC)n1cnc2c(cnn2-c2ccc(Cl)cc2)c1=O` (stereo not given), the “activity, negative = inhibition” value is reported as inactive: -7.23%. For `Clc1ccc(-c2nnnn2-c2ccc(Cl)cc2)cc1`, the “activity, negative = inhibition” value was inactive: 7.39%. In the case of `COc1cc(NC(=O)C2CCN(C(=O)c3sc4nc[nH]c(=O)c4c3C)CC2)cc(OC)c1OC`, the Potency is reported as inconclusive: 0.199 µM [inhibitor, full curve, poor fit]. In the case of `CCc1ccc2oc(=O)cc(CN3CCN(c4ccc(F)cc4)CC3)c2c1`, the “activity, negative = inhibition” value is reported as inactive: 3.84%. In the case of `COc1cc(/C=C(\C#N)c2nc3ccccc3[nH]2)ccc1Oc1ccc([N+](=O)[O-])cn1`, the Potency is reported as inconclusive: 0.708 µM [inhibitor, full curve, poor fit]. With `CS(=O)(=O)c1ccc(S(=O)CC(=O)Oc2ccc(Cl)cc2)c([N+](=O)[O-])c1` (stereo not given) the Potency was inconclusive: 11.2 µM [inhibitor, partial curve, poor fit]. For `O=C(Cn1c(=O)n(CCc2ccccc2)c(=O)c2cccnc21)Nc1ccc(F)cc1`, the Potency was inconclusive: 25.1 µM [inhibitor, single point].

Reference: PubChem BioAssay AID588855 (National Center for Advancing Translational Sciences (NCATS), 2011)
On the % scale 0 is the no-effect control and ±100 the full control effect; potency means the concentration at half of the fitted maximal effect; tags describe the fitted curve by direction and shape.
